According to the supplement of paper PMC8728848:
Some of the results follow.

Assays:
Assay in all cases: glycan array binding signal (z-score within array); higher = stronger binding
Conditions in all cases: glycan notation: IUPAC condensed, linker removed
[1] = biological target: Fuc(a1-2)Gal
Procedure, shortened: (§1)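 Arrays were curated from the Consortium for Functional Glycomics database, 3228 in total, and kept only where the protein sequence was available. Binding is expressed as a within-array Z-score. This score was averaged across arrays of the same protein sequence at different concentrations or buffers and across linkers, and negative values can be read as non-binding.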

[2] = biological target: Fuc(a1-2)Gal(b1-3)GalNAc
Procedure, shortened: as §1

[3] = biological target: Fuc(a1-2)Gal(b1-3)GalNAc(a1-3)[Fuc(a1-2)]Gal(b1-4)Glc
Procedure, shortened: as §1

[4] = biological target: Fuc(a1-2)Gal(b1-3)GalNAc(a1-3)[Fuc(a1-2)]Gal(b1-4)GlcNAc
Procedure, shortened: as §1

[5] = biological target: Fuc(a1-2)Gal(b1-3)GalNAc(b1-3)Gal
Procedure, shortened: as §1

[6] = biological target: Fuc(a1-2)Gal(b1-3)GalNAc(b1-3)Gal(a1-4)Gal(b1-4)Glc
Procedure, shortened: as §1

[7] = biological target: Fuc(a1-2)Gal(b1-3)GalNAc(b1-4)[Neu5Ac(a2-3)]Gal(b1-4)Glc
Procedure, shortened: as §1

[8] = biological target: Fuc(a1-2)Gal(b1-3)GlcNAc
Procedure, shortened: as §1

[9] = biological target: Fuc(a1-2)Gal(b1-3)GlcNAc(b1-2)Man(a1-3)[Fuc(a1-2)Gal(b1-3)GlcNAc(b1-2)Man(a1-6)]Man(b1-4)GlcNAc(b1-4)GlcNAc
Procedure, shortened: as §1

[10] = biological target: Fuc(a1-2)Gal(b1-3)GlcNAc(b1-2)Man(a1-3)[Fuc(a1-2)Gal(b1-3)GlcNAc(b1-2)Man(a1-6)]Man(b1-4)GlcNAc(b1-4)[Fuc(a1-6)]GlcNAc
Procedure, shortened: as §1

[11] = biological target: Fuc(a1-2)Gal(b1-3)GlcNAc(b1-3)Gal(b1-4)Glc
Procedure, shortened: as §1

[12] = biological target: Fuc(a1-2)Gal(b1-3)GlcNAc(b1-3)GalNAc
Procedure, shortened: as §1

[13] = biological target: Fuc(a1-2)Gal(b1-3)GlcNAc(b1-3)[Fuc(a1-2)Gal(b1-3)GlcNAc(b1-6)]GalNAc
Procedure, shortened: as §1

[14] = biological target: Fuc(a1-2)Gal(b1-3)GlcNAc(b1-3)[Gal(b1-4)GlcNAc(b1-6)]Gal(b1-4)Glc
Procedure, shortened: as §1

[15] = biological target: Fuc(a1-2)Gal(b1-3)GlcNAc(b1-3)[Neu5Ac(a2-6)Gal(b1-4)GlcNAc(b1-6)]Gal(b1-4)Glc
Procedure, shortened: as §1

[16] = biological target: Fuc(a1-2)Gal(b1-3)GlcNAc6S
Procedure, shortened: as §1

[17] = biological target: Fuc(a1-2)Gal(b1-3)[Fuc(a1-4)]GlcNAc
Procedure, shortened: as §1

[18] = biological target: Fuc(a1-2)Gal(b1-3)[Fuc(a1-4)]GlcNAc(b1-2)Man(a1-3)[Fuc(a1-2)Gal(b1-3)[Fuc(a1-4)]GlcNAc(b1-2)Man(a1-3)]Man(b1-4)GlcNAc(b1-4)GlcNAc
Procedure, shortened: as §1

[19] = biological target: Fuc(a1-2)Gal(b1-3)[Fuc(a1-4)]GlcNAc(b1-2)Man(a1-3)[Fuc(a1-2)Gal(b1-3)[Fuc(a1-4)]GlcNAc(b1-2)Man(a1-6)]Man(b1-4)GlcNAc(b1-4)[Fuc(a1-6)]GlcNAc(b1-4)[Fuc(a1-6)]GlcNAc
Procedure, shortened: as §1

[20] = biological target: Fuc(a1-2)Gal(b1-3)[Fuc(a1-4)]GlcNAc(b1-3)[Fuc(a1-3)[Gal(b1-4)]GlcNAc(b1-6)]Gal(b1-4)Glc
Procedure, shortened: as §1

[21] = biological target: Fuc(a1-2)Gal(b1-3)[Fuc(a1-4)]GlcNAc(b1-3)[Gal(b1-4)GlcNAc(b1-6)]Gal(b1-4)Glc
Procedure, shortened: as §1

[22] = biological target: Fuc(a1-2)Gal(b1-4)Glc
Procedure, shortened: as §1

[23] = biological target: Fuc(a1-2)Gal(b1-4)Glc6S
Procedure, shortened: as §1

[24] = biological target: Fuc(a1-2)Gal(b1-4)GlcNAc
Procedure, shortened: as §1

[25] = biological target: Fuc(a1-2)Gal(b1-4)GlcNAc(b1-2)Man
Procedure, shortened: as §1

[26] = biological target: Fuc(a1-2)Gal(b1-4)GlcNAc(b1-2)Man(a1-3)[Fuc(a1-2)Gal(b1-4)GlcNAc(b1-2)Man(a1-6)]Man(b1-4)GlcNAc(b1-4)GlcNAc
Procedure, shortened: as §1

[27] = biological target: Fuc(a1-2)Gal(b1-4)GlcNAc(b1-2)Man(a1-3)[Fuc(a1-2)Gal(b1-4)GlcNAc(b1-2)Man(a1-6)]Man(b1-4)GlcNAc(b1-4)[Fuc(a1-6)]GlcNAc
Procedure, shortened: as §1

[28] = biological target: Fuc(a1-2)Gal(b1-4)GlcNAc(b1-2)[Fuc(a1-2)Gal(b1-4)GlcNAc(b1-4)]Man(a1-3)[Fuc(a1-2)Gal(b1-4)GlcNAc(b1-2)Man(a1-6)]Man(b1-4)GlcNAc(b1-4)GlcNAc
Procedure, shortened: as §1

[29] = biological target: Fuc(a1-2)Gal(b1-4)GlcNAc(b1-3)Gal(b1-4)GlcNAc
Procedure, shortened: as §1

[30] = biological target: Fuc(a1-2)Gal(b1-4)GlcNAc(b1-3)Gal(b1-4)GlcNAc(b1-2)Man(a1-3)[Fuc(a1-2)Gal(b1-4)GlcNAc(b1-3)Gal(b1-4)GlcNAc(b1-2)Man(a1-6)]Man(b1-4)GlcNAc(b1-4)GlcNAc
Procedure, shortened: as §1

B1: SP15308A-bot-339-19-339 (Bacteroides ovatus) (protein)
chain: ACNNEWEDEQYEQYISFKSPIPAGGEGVTDIYVRYKEDGKVTYRLPIVVSGSTTNTLDREVHIAVDKDTLETLNIERFSIHRPGLWYTALEEDKYDFPKTVHISAGSSVEQLNIDFNLQGIDMLEKWVLPLTIVDDPSYNYKSHPRKNYAKALLRVIPFNNYSGSYTSSAMKVYTYINGKPDTNARTANKRTGYVINDNTVFFYAGLISEDLDKEVREKYKINVHFNEDGTLHMEQGDPTNKMKFELIGTPTYSKTSVMDATRPYLERRYVQIMFEYDFEDFSYGGNGVDVIPIKYKVEGSMTLQRNINTQIPDEDQQIEW
[1]
  glycan array binding signal (z-score): -0.352
[2]
  glycan array binding signal (z-score): 0.245
[3]
  glycan array binding signal (z-score): -0.461
[4]
  glycan array binding signal (z-score): -0.235
[5]
  glycan array binding signal (z-score): -0.326
[6]
  glycan array binding signal (z-score): -0.053
[7]
  glycan array binding signal (z-score): -0.292
[8]
  glycan array binding signal (z-score): -0.201
[9]
  glycan array binding signal (z-score): 0.068
[10]
  glycan array binding signal (z-score): 0.285
[11]
  glycan array binding signal (z-score): -0.208
[12]
  glycan array binding signal (z-score): -0.509
[13]
  glycan array binding signal (z-score): 0.262
[14]
  glycan array binding signal (z-score): -0.461
[15]
  glycan array binding signal (z-score): 0.282
[16]
  glycan array binding signal (z-score): 0.314
[17]
  glycan array binding signal (z-score): -0.547
[18]
  glycan array binding signal (z-score): 0.066
[19]
  glycan array binding signal (z-score): -0.207
[20]
  glycan array binding signal (z-score): 0.069
[21]
  glycan array binding signal (z-score): -0.441
[22]
  glycan array binding signal (z-score): -0.352
[23]
  glycan array binding signal (z-score): -0.314
[24]
  glycan array binding signal (z-score): -0.054
[25]
  glycan array binding signal (z-score): 0.22
[26]
  glycan array binding signal (z-score): 0.001
[27]
  glycan array binding signal (z-score): -0.468
[28]
  glycan array binding signal (z-score): -0.643
[29]
  glycan array binding signal (z-score): -0.213
[30]
  glycan array binding signal (z-score): 0.005
